Sequences and labels used below:
B1: LB-4E-BP1 with T37E and T46E mutations (other)
chain: MVFTLEDFVGDWEQTAAYNLDQVLEQGGVSSLLQNLAVSVTPIQRIVRSGENALKIDIHVIIPYEGLSADQMAQIEEVFKVVYPVDDHHFKVILPYGTLVIDGVTPNMLNYFGRPYEGIAVFDGKKITVTGTLWNGNKIIDERLITPDGSMLFRVTINSGSSGGGGSGGGGSSG[about 120 residues with changes not written out]
notes: Phospho-mimetic double mutant made on the LB-4E-BP1 plasmid; The residue numbers count on 4E-BP1 itself; also called T37/46E (double-mutant)
B2: LB-4E-BP1 with T70E mutation (other)
chain: MVFTLEDFVGDWEQTAAYNLDQVLEQGGVSSLLQNLAVSVTPIQRIVRSGENALKIDIHVIIPYEGLSADQMAQIEEVFKVVYPVDDHHFKVILPYGTLVIDGVTPNMLNYFGRPYEGIAVFDGKKITVTGTLWNGNKIIDERLITPDGSMLFRVTINSGSSGGGGSGGGGSSG[about 120 residues with changes not written out]
notes: Phospho-mimetic mutant made on the LB-4E-BP1 plasmid; The residue number counts on 4E-BP1 itself; also called T7OE
B3: LB-4E-BP1 with T46E mutation (other)
chain: MVFTLEDFVGDWEQTAAYNLDQVLEQGGVSSLLQNLAVSVTPIQRIVRSGENALKIDIHVIIPYEGLSADQMAQIEEVFKVVYPVDDHHFKVILPYGTLVIDGVTPNMLNYFGRPYEGIAVFDGKKITVTGTLWNGNKIIDERLITPDGSMLFRVTINSGSSGGGGSGGGGSSG[about 120 residues with changes not written out]
notes: Phospho-mimetic mutant made on the LB-4E-BP1 plasmid; The residue number counts on 4E-BP1 itself
B4: LB-4E-BP1 with T37E mutation (other)
chain: MVFTLEDFVGDWEQTAAYNLDQVLEQGGVSSLLQNLAVSVTPIQRIVRSGENALKIDIHVIIPYEGLSADQMAQIEEVFKVVYPVDDHHFKVILPYGTLVIDGVTPNMLNYFGRPYEGIAVFDGKKITVTGTLWNGNKIIDERLITPDGSMLFRVTINSGSSGGGGSGGGGSSG[about 120 residues with changes not written out]
notes: Phospho-mimetic mutant made on the LB-4E-BP1 plasmid
B5: Small BiT (SB)-eIF4E, full-length (other)
chain: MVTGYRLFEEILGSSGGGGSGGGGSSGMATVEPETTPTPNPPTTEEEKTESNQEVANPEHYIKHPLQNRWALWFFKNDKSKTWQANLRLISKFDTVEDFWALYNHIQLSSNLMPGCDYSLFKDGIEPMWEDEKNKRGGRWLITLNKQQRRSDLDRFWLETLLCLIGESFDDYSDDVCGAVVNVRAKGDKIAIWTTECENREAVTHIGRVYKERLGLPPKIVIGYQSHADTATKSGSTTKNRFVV
notes: N-terminal Small BiT fusion of full-length eIF4E (cDNA Origene RC207333), expressed intracellularly in HEK293, MCF-7 or HEK293-derived clones; also called Full-length SB-eIF4E; SB-linked eIF4E

Test [1] has as its target B5. The experiment in a line: split-luciferase (NanoBiT) complementation in HEK293 cells.
Test [2] addresses B5. Briefly: split-luciferase (NanoBiT) complementation in HEK293 cells, FIG. 21.
The target of test [3] is T1, 4E-BP1 with C-terminal LB at residue 75 (UniProt Q13541 1-75).
T1 construct: range 1-75; C-terminally truncated 4E-BP1 with the Large BiT attached at the truncated end; not shown: linker and Large BiT of vector pBiT1.1-C [TK/LgBiT] at the C-terminus
The experiment in a line: split-luciferase (NanoBiT) luminescence in HEK293 cells.

Regarding B1, the binding result in test [1] is listed as “binds”.

Consider B2, for which the binding result in test [2] was “binds”. Still for that read-out and setting: to B3 belongs “binds”; to B4, “binds”.

With B5, the binding result in test [3] is given as “no binding”.
